# Data taken from PubChem BioAssay AID588855 (National Center for Advancing Translational Sciences (NCATS), 2011).
# Among all 410,000 compounds or so, about 5,000 (1.2%) were called active. Inconclusive means that the source gave no clear call. Such entries were picked first, then a sample of the others. The call rests on the fitted dose curve; in most records, active means well fitted inhibition curve with a large enough effect; inconclusive means small, poorly fitted or top-dose-only effect; inactive means no such curve, though single readings can be large or run the other way. Potencies beside an inconclusive call are fits to weak or partial responses and may not hold up.
# Assay: qHTS for Inhibitors of TGF-b; further: nearly all actives have a fitted effect of over 65% in size
# Conditions: HepG2 CAGA-GFP TGF-b/SMAD3 reporter, GFP fluorescence, 18 h, TGF-beta stimulated, 500 pg/mL final; series mostly up to 46.1 µM
# Procedure, shortened: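 First, reporter cells (HEPG2 CAGA-GFP) rested 2 h at 37 degrees C. Next, compounds were pinned in and TGF-beta added to 500 pg/mL final. After 18 h, GFP was imaged per cell and summed per well.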
# Potency means the concentration at half of the fitted maximal effect; tags describe the fitted curve by direction and shape.
row,SMILES,Potency
1,COc1cc(CNn2cn[nH]c2=S)cc(Cl)c1OCc1ccccc1,"inconclusive: 35.5 µM [inhibitor, single point]"
2,Cc1ccc(CNC(=O)N2CCN(S(=O)(=O)c3ccccc3)CC2)cc1,"inconclusive: 7.08 µM [inhibitor, partial curve, poor fit]"
3,CCOC(=O)c1cc2c(c(CCO)n1)[C@H](CCO)N(S(=O)C(C)(C)C)C2 (stereo partly drawn),"inconclusive: 8.91 µM [inhibitor, partial curve, poor fit]"
4,O=C(Nc1sc(-c2ccccc2)cc1C(=O)O)c1ccccc1,"inconclusive: 12.6 µM [inhibitor, single point]"
5,CC(=O)Nc1ccc(NC(=O)c2ccc([N+](=O)[O-])cc2Cl)cc1,inactive
6,C[C@H](CO)N1C[C@H](C)[C@@H](CN(C)S(C)(=O)=O)Oc2ccc(NC(=O)Nc3ccccc3)cc2C1=O,"inconclusive: 14.1 µM [inhibitor, single point]"
7,COc1cc(CNCCSc2nnnn2C)cc(Br)c1OCc1ccccc1,"inconclusive: 14.1 µM [inhibitor, single point]"
8,CCOC(=O)C(NC(=O)c1cccc(Cl)c1)(OCc1ccccc1)C(F)(F)F (stereo not drawn),"inconclusive: 15.8 µM [inhibitor, single point]"
9,CC(=O)c1c(C)oc2ccc(N(C(=O)c3ccncc3)S(=O)(=O)c3ccccc3)cc12,inactive
10,COc1ccc(C(=O)N2CCC(C(N)=O)CC2)cc1S(=O)(=O)N1CCCC1,inactive
11,O=C(Nc1ccc(S(=O)(=O)NC2=NCCCCC2)cc1)c1ccc([N+](=O)[O-])s1,active: 7.08 µM
12,O=C(c1cccc(C(F)(F)F)c1)C1CCCN(Cc2cccc(OCCO)c2)C1 (stereo not drawn),"inconclusive: 35.5 µM [inhibitor, single point]"
13,CN(C)c1ccc(C(CNC(=O)c2ccc(F)cc2)c2c[nH]c3ccccc23)cc1 (stereo not drawn),"inconclusive: 35.5 µM [inhibitor, single point]"
14,COc1ccc(C(=O)COC(=O)c2n[nH]c3ccccc23)c(OC)c1,"inconclusive: 3.16 µM [inhibitor, partial curve, poor fit]"
15,CC(=O)N1c2ccc(S(=O)(=O)N3CCN(c4ccc(C)cc4C)CC3)cc2CC1C (stereo not drawn),"inconclusive: 3.98 µM [inhibitor, single point]"
16,O=C(Cn1ccn(-c2ccc(F)cc2)c(=O)c1=O)NCCc1ccccc1,inactive
17,O=C(CSc1cccc[n+]1[O-])c1ccccc1Br,"inconclusive: 10 µM [inhibitor, partial curve, poor fit]"
18,Cc1ccc(SC(C)C(=O)NC2CC2)cc1 (stereo not drawn),inactive
19,O=C(CO/N=C1\CCCc2nonc21)Nc1ccc(Br)cc1,"inconclusive: 14.1 µM [inhibitor, single point]"
20,COc1cccc(NC(=O)C2CCN(S(=O)(=O)c3ccc4c(c3)NC(=O)CO4)CC2)c1,inactive
21,Cc1nc2nc(CNC(=O)OC(C)(C)C)nn2c(C)c1CCC(=O)Nc1ccc2c(c1)OCO2,inactive
22,COc1ccc(CN(C)C2c3ccccc3-c3ccccc32)cc1,"inconclusive: 11.2 µM [inhibitor, partial curve, poor fit]"

row,SMILES,Potency
1,CC(C)C(c1nnnn1Cc1ccccc1)N1CCc2ccccc2C1 (stereo not drawn),inactive
2,CC(C)(C)OC(=O)[C@H](Cc1ccccc1)NC(=O)c1[nH]cnc1C(=O)Nc1ccccc1F,"inconclusive: 14.1 µM [inhibitor, single point]"
3,CC(=O)OC(C(=O)NC1CCCCC1)c1ccc(Cl)cc1 (stereo not drawn),"inconclusive: 1.12 µM [inhibitor, full curve, poor fit]"
4,CC1CC1C(=O)Nc1nc(-c2ccc(Cl)s2)cs1 (stereo not drawn),"inconclusive: 35.5 µM [inhibitor, single point]"
5,Cc1cc2nc(C3CCCN(C(=S)Nc4ccccc4C)C3)[nH]c2cc1C (stereo not drawn),"inconclusive: 31.6 µM [inhibitor, single point]"
6,CC(C(=O)Nc1ccccc1)N1CCN(C(=O)c2ccco2)CC1 (stereo not drawn),inactive
7,O=C1CS(=O)(=O)N(Cc2ccc(F)cc2)c2ccccc21,"inconclusive: 22.4 µM [inhibitor, single point]"
8,CC(C)(C)C1CCc2oc3ccc(NS(=O)(=O)c4cc(Cl)ccc4Cl)cc3c2C1 (stereo not drawn),"inconclusive: 31.6 µM [inhibitor, single point]"
9,Cc1cccc(CSc2cn(CC(=O)N3CCCCC3)c3ccccc23)c1,inactive
10,Cc1cc(C)c2sc(N(Cc3cccnc3)C(=O)CCS(=O)(=O)c3ccccc3)nc2c1,active: 2.51 µM
11,CS(=O)(=O)N(CC(=O)NCc1ccc2c(c1)OCO2)Cc1ccc(Cl)cc1,"inconclusive: 0.1 µM [inhibitor, full curve, poor fit]"
12,Cc1nn(C)c(C(=O)Sc2ccccc2)c1[N+](=O)[O-],"inconclusive: 35.5 µM [inhibitor, single point]"
13,CCCC(=O)OC1=CN(Cc2ccccc2)S(=O)(=O)c2ccccc21,"inconclusive: 22.4 µM [inhibitor, single point]"
14,CN1C(=O)N(C)C2C1N(C)S(=O)(=O)N2C (stereo not drawn),"inconclusive: 5.62 µM [inhibitor, single point]"
15,CCOc1cc(N2CCOCC2)c(OCC)cc1NC(=O)c1nn(CC)c(=O)c2ccccc12,inactive
16,CC1=CC(C)C(/C=N/N=C(N)N)C(C)C1 (stereo not drawn),"inconclusive: 35.5 µM [inhibitor, single point]"
17,Cc1nc(-c2cccc(NC(=O)C3CCCCC3)c2)cs1,"inconclusive: 11.2 µM [inhibitor, single point]"
18,Oc1ccc(Nc2nc(N3CCCC3)c3ccccc3n2)cc1,"inconclusive: 15.8 µM [inhibitor, partial curve, poor fit]"
19,O=C1CCCC2=C1C(c1ccc(O)c(O)c1)Nc1ccc3ccccc3c12 (stereo not drawn),"inconclusive: 15.8 µM [inhibitor, single point]"
20,CSC1=N/C(=C\c2ccc(Cl)cc2)C(=O)N1N(C)C,"inconclusive: 12.6 µM [inhibitor, single point]"
21,Cc1[nH]c(=S)[nH]c(=O)c1Cc1c(O)ccc2ccccc12,"inconclusive: 3.98 µM [inhibitor, full curve, poor fit]"
